The values that follow come from PubChem BioAssay AID1347073 (National Center for Advancing Translational Sciences (NCATS), 2019).

The whole screen tested about 45,000 compounds, of which about 200 (0.44%) were called active. Roughly 7% stayed inconclusive and do not appear here. Calls follow the shape of the dose curve; as a rule, active = well fitted activation curve with a large enough effect; inconclusive = small, poorly fitted or top-dose-only effect; inactive = no such curve, though single readings can be large or run the other way. The list shows a part of the results.

This test in a line: qHTS of TDP-43 Inhibitors: NCGC Sytravon Library Screen. Also: 0% is about no effect; nearly all actives have a fitted effect of over 55% in size. Conditions: yeast TDP-43 toxicity rescue, BacTiter-Glo growth, 24 h; series mostly up to 46.1 µM; growth rescue (activation): at the top concentration. In outline: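 TDP-43-expressing yeast, pregrown in raffinose, seeded at OD600 0.02 in galactose medium with compound for 24 hr at 30 deg C. Growth read by BacTiter-Glo luminescence, so rescue of toxicity appears as activation.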
A general note: qHTS replaces the single test concentration by a dilution series.
In the case of `Cn1c(/C=N/Nc2nc3ccccc3[nH]2)nc2ccccc21`, the “growth rescue (activation)” value was inactive: -4.38%. `O=C(CSc1ccccc1F)NC(=O)c1ccc(Cl)cc1`: the “growth rescue (activation)” value was inactive: 36.7%. With `CCc1nc2ccc(C(=O)NCc3ccc(OC)cc3)cn2c1N(CCC(C)C)CCN(C)C`, the “growth rescue (activation)” value was inactive: 1.06%. As for `Cc1nc(OCC(C)C)c2sc3nc4c(cc3c2n1)COC(C)(C)C4`, the figure is inactive: -6.57%; as for `COc1ccc(CCNC(=O)COC(=O)Cc2c[nH]c3ccccc23)cc1OC`, inactive: 13.2%. With `O=C(COC(=O)c1cccc(S(=O)(=O)NCc2ccccc2)c1)c1ccc2c(c1)OCCO2`, the “growth rescue (activation)” value was inactive: 1.18%. As for `O=C(NC1CCCCC1)C(c1ccccc1F)N(C(=O)c1csnn1)C1CCCC1` (configuration not stated), the “growth rescue (activation)” value was inactive: 1.84%. On to `Cc1cc(S(=O)(=O)N2CCOCC2)ccc1OCC(=O)Nc1ccccc1F`, for which the “growth rescue (activation)” value was inactive: 5.2%.

For `Cc1ccc(C(=O)COC(=O)c2cn(-c3ccccc3)nc2-c2ccccc2)cc1[N+](=O)[O-]`, the “growth rescue (activation)” value is inactive: 20.1%. Regarding `Cc1ccc(C(=O)NC2CCN(CC(=O)NC3CCC(C)CC3)CC2)cc1` (configuration not stated), the “growth rescue (activation)” value is inactive: -2.72%.

As for `COc1ccc(NC(=O)Nc2sc(NS(=O)(=O)c3ccccc3)nc2C)cc1`, the “growth rescue (activation)” value is inactive: -4.9%. On to `Cc1ccc2nc3c(cc(C(=O)NCCN4CCOCC4)c(=N)n3CCCN3CCOCC3)c(=O)n2c1`, for which the “growth rescue (activation)” value is inactive: 7.67%. In the case of `CCOc1ccc(NC(=O)c2ccc(NC(=S)NC3CCCCC3)cc2)cc1`, the “growth rescue (activation)” value was inactive: 21.5%. As for `Cn1c(N/N=C2\CCCc3ccccc32)nc2c1c(=O)n(Cc1ccccc1)c(=O)n2C`, the figure is inactive: 19.9%; as for `O=C(c1ccc(CNS(=O)(=O)c2cccc(Cl)c2)cc1)N1CCCC1`, inactive: 10.5%. Take `COCCN1C[C@@H](CO)O[C@@H](n2cnc3c(NCc4cc(OC)c(OC)c(OC)c4)ncnc32)C1`: the “growth rescue (activation)” value is inactive: 0.755%. On to `COc1ccc(N2C(=O)CSC2c2cccc(F)c2)cc1` (configuration not stated), for which the “growth rescue (activation)” value was inactive: 9.5%.

For the compound `COc1ccc(OC)c(NC(=O)CSC2=NN3CCCC(=O)N=C3S2)c1`, the “growth rescue (activation)” value was inactive: 6.68%. Regarding `O=C(Cn1c(CO)nc2ccccc21)NCc1ccc2c(c1)OCO2`, the “growth rescue (activation)” value was inactive: 20.4%. As for `CC(NC(N)=O)C(=O)Nc1ccc(Cl)c(S(=O)(=O)Nc2ccc(Br)cc2)c1` (configuration not stated), the figure is inactive: 10.6%.

Regarding `CCn1c(SCC(=O)N/N=C/C=C/c2ccccc2[N+](=O)[O-])nnc1-c1ccccc1`, the “growth rescue (activation)” value was inactive: 3.98%. As for `Cc1ccc(C(=O)NC(=S)Nc2cccc(NC(=O)c3ccccc3Cl)c2)cc1[N+](=O)[O-]`, the figure is inactive: 8.45%; as for `COc1cc(SC)ccc1C(=O)NCCNC(=O)c1nonc1N`, inactive: -17.6%.

`COc1cccc(C2CC(=O)Nc3n[nH]c(-c4ccccc4)c32)c1OC` (configuration not stated): the “growth rescue (activation)” value was inactive: 5.02%. Take `CC(=O)c1cccc(Nc2ncnc3ccc(Br)cc23)c1`: the “growth rescue (activation)” value is inactive: -15.3%.

On to `COc1cccc2c1cc1c(=O)n(CC(=O)N3CCCC3)nc(C)n12`, for which the “growth rescue (activation)” value is inactive: -15.5%. With `CCOc1ccc(C(=O)NCC(=O)OCC(=O)Nc2ccc(C)c(S(=O)(=O)N(C)C)c2)cc1`, the “growth rescue (activation)” value was inactive: -6.99%. On to `NS(=O)(=O)c1ccc(CCNC(=O)c2ccc3c(c2)OCO3)cc1`, for which the “growth rescue (activation)” value is inactive: 7.9%.

In the case of `CC1(C(=O)NCc2cccc3ccccc23)CCN1CCc1ccccc1` (configuration not stated), the “growth rescue (activation)” value was inactive: 0.736%. As for `Cc1noc(C(=O)Nc2cccc(O)c2)c1Cl`, the figure is inactive: -5.18%; as for `CN(Cc1ccccc1)C(=O)C1CCN(S(C)(=O)=O)CC1`, inactive: 2.28%.

Regarding `O=C(O)CNC(=O)c1ccc(NS(=O)(=O)c2ccc3ccccc3c2)cc1`, the “growth rescue (activation)” value was inactive: -17.1%.

On to `Cc1ccc(-c2noc(CCCC(=O)NC3CCCC3)n2)cc1`, for which the “growth rescue (activation)” value is inactive: 7.84%. Consider `COc1cccc(C(=O)NC2CC3CCCC(C2)N3CC(=O)Nc2ccccc2C(F)(F)F)c1` (configuration not stated), for which the “growth rescue (activation)” value was inactive: -44.1%. For the compound `Cc1nc(NC(=O)c2ccccc2[N+](=O)[O-])sc1C(=O)N(C)C`, the “growth rescue (activation)” value was inactive: 6.31%. As for `CC(C)CCNC(=O)CN(Cc1ccccc1)C(=O)CCC(=O)Nc1ccccn1`, the figure is inactive: -6.03%. `CN(C)C(=O)c1ccc(Nc2nnc(-c3ccc(O)cc3)c3ccccc23)cc1`: the “growth rescue (activation)” value is inactive: -1.08%.

Consider `COc1cc(/C=N/NS(=O)(=O)c2ccc(C)cc2)ccc1OCc1ccc(C(=O)O)cc1`, for which the “growth rescue (activation)” value was inactive: 2.09%. In the case of `O=C(CSc1n[nH]c(-c2ccccc2Br)n1)NCCN1C(=O)CSC1=O`, the “growth rescue (activation)” value is inactive: 7.64%. With `CC(C)OCCCn1c(=S)[nH]c2ncccc2c1=O`, the “growth rescue (activation)” value was inactive: 27.6%. As for `O=C(CSc1nnc(NC(=O)C2CC2)s1)Nc1ccccc1C(F)(F)F`, the figure is inactive: 10.4%; as for `CCc1nn(CCCC(=O)NCc2cc(Br)ccc2OC)c(=O)c2cc3occc3n12`, inactive: 7.65%; as for `CCOc1ccc(OCc2ccc(C(=O)N/N=C(\C)c3ccccn3)cc2)cc1`, inactive: 2.93%. As to `Cc1ccc(C(=O)NNC(=O)Cn2nnc3ccccc32)cc1`, the “growth rescue (activation)” value was inactive: 12.6%. Consider `Cc1nc(N2CCc3ccccc3C2)[nH]c(=O)c1Cc1ccccc1`, for which the “growth rescue (activation)” value was inactive: 5.57%. With `COC(=O)Nc1ccc(S(=O)(=O)N2CCC(C(=O)NCc3ccc4c(c3)OCO4)CC2)cc1`, the “growth rescue (activation)” value is inactive: -4.69%. Turning to `COc1ccc(C(CC(=O)Nc2ncccc2C)N2Cc3ccccc3C2=O)cc1` (configuration not stated), the “growth rescue (activation)” value is inactive: -10.2%. As to `O=C1/C(=C/c2ccc(O)cc2)COc2ccccc21`, the “growth rescue (activation)” value was inactive: 2.18%. With `Cc1ccnc(NC(=O)CCC(=O)N(CC(=O)NC(C)(C)C)c2ccc3c(c2)OCCO3)c1`, the “growth rescue (activation)” value is inactive: -8.56%. Consider `COc1ccc(C(=O)COc2ccc(F)cc2)c(O)c1`, for which the “growth rescue (activation)” value is inactive: -2.48%. On to `CCCOc1cccc(C(=O)N2CCN(C(=O)C3CCCO3)CC2)c1` (configuration not stated), for which the “growth rescue (activation)” value was inactive: 6.56%. As for `O=C1CN(C(=O)CSc2nc3ccccc3n2CCc2ccccc2)c2ccccc2N1`, the figure is inactive: -7.55%.
